Results: PubChem BioAssay AID504339 (National Center for Advancing Translational Sciences (NCATS), 2011)
In all, about 390,000 compounds went through this assay and about 17,000 (4.4%) were called active. Inconclusive means that the source gave no clear call. Such entries were picked first, then a sample of the others. Calls follow the shape of the dose curve; as a rule, active = well fitted inhibition curve with a large enough effect; inconclusive = small, poorly fitted or top-dose-only effect; inactive = no such curve, though single readings can be large or run the other way. Potencies beside an inconclusive call are fits to weak or partial responses and may not hold up.

Each molecule was assayed against Lysine-specific demethylase 4A (Homo sapiens) (UniProt O75164) (assay: qHTS Assay for Inhibitors of JMJD2A-Tudor Domain). Settings: AlphaScreen JMJD2A-Tudor / H3K4me3 peptide binding; activity change, negative = inhibition: at 114 µM (top of the series).
% is scaled to controls: 0 for no effect and ±100 for the full control effect; potency is read from the fitted curve at half-maximal effect; tags tell the direction and shape of the fitted curve.
Also: nearly all actives have a fitted effect of over 50% in size.

Chain of UniProt O75164 (O75164 whole entry, looked up, the tested form may be a part): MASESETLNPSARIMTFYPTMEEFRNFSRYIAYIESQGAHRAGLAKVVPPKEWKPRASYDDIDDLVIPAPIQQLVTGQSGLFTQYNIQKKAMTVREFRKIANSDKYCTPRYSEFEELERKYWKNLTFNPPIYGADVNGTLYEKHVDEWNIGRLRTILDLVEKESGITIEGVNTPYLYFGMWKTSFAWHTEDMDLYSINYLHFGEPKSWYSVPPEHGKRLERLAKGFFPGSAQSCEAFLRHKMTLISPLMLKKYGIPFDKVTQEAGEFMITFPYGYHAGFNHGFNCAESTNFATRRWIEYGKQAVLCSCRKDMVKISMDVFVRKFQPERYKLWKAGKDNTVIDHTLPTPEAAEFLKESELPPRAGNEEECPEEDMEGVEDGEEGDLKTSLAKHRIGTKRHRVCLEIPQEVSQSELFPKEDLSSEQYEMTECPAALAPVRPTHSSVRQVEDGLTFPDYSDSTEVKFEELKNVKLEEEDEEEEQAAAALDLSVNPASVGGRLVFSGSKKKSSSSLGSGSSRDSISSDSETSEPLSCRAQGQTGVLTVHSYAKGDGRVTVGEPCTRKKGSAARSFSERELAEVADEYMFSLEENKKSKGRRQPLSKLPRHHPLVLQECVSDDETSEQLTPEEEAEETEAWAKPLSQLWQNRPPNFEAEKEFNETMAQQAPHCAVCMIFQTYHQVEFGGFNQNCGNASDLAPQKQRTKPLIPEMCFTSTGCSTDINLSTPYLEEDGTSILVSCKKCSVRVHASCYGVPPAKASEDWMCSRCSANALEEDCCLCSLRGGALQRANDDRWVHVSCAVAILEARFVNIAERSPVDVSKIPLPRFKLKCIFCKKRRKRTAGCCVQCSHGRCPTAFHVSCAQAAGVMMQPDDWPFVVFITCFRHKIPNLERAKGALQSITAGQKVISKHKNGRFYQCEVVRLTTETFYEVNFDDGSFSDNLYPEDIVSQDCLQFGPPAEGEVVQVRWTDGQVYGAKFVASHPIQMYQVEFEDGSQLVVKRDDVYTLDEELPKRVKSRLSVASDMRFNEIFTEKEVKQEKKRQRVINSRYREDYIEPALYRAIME

Compound | Potency | activity change, negative = inhibition
CCOc1ccc(/C=N/NC(=O)c2cc3c(OC)cc(OC)c(OC)c3[nH]2)cc1 | inconclusive: 39.8 µM [inhibitor, partial curve] | 
Fc1ccccc1N=C1NN=C(c2ccccc2)CS1 |  | inactive: -28.6%
CN1CCN(Cc2ccc(Sc3ccc(Cl)cc3)c([N+](=O)[O-])c2)CC1 | inconclusive: 56.2 µM [inhibitor, partial curve] | 
O=[N+]([O-])c1ccc(N2CCN(c3ccccn3)CC2)c(Cl)c1 |  | inactive: -32%
O=C(C[C@H]1C[C@H](C(=O)N2CCCCC2)[C@@]2(CCc3ccccc3)c3[nH]c4ccc(Cl)cc4c3CCN2C1=O)NCCCn1ccnc1 | active: 35.5 µM | 
COc1ccc(CCn2c(=S)[nH]c3ccc(N4CCOCC4)cc3c2=O)cc1OC |  | inactive: -5.11%
Cc1cc(C=O)c(C)n1-c1ccc(NC2CCCC2)c([N+](=O)[O-])c1 | active: 20 µM | 
COC(=O)C(=O)C1CCc2c(Cl)cc(OC)c(OC)c2C1=O (stereo not drawn) | inconclusive: 28.2 µM [inhibitor, full curve, poor fit] | 
C=CCCC(=O)Nc1nc(C)c(-c2csc(Nc3ccccc3OC)n2)s1 | inconclusive: 39.8 µM [inhibitor, partial curve] | 
CCSc1nnc2ccc(-c3ccc(OC)c(OC)c3)nn12 | inconclusive: 12.6 µM [inhibitor, full curve] | 
O=C(O)c1ccc(NC(=O)c2cn(-c3ccccc3)nc2-c2ccc(Cl)cc2)cc1 | inconclusive: 79.4 µM [inhibitor, single point] | 
Cc1nn(-c2ccccc2)c(OC(=O)C(C)C)c1Sc1ccccc1 | inconclusive: 89.1 µM [inhibitor, partial curve] | 
CCCC(=O)Nc1nc(C)c(-c2csc(Nc3ccccc3C)n2)s1 | inconclusive: 56.2 µM [inhibitor, partial curve] | 
CCOc1ccc(NC(=O)N2CCN(S(=O)(=O)c3ccc4c(ccn4C)c3)CC2)cc1 |  | inactive: -33.2%
CCOc1ccccc1NC(=O)CSc1nc(N)c(C#N)cc1C#N |  | inactive: -12.9%
Cc1ccccc1N(CC(=O)NC1CCCC1)C(=O)C1(C)CC(=O)N=C2C=CC=CN21 (stereo not drawn) | inconclusive: 89.1 µM [inhibitor, single point] | 
COc1cc(C(=O)N/N=C/c2ccc(OC(=O)c3cccc(C)c3)c(OC)c2)ccc1O | inconclusive: 50.1 µM [inhibitor, partial curve] | 
COc1cc(-c2nc(S(=O)(=O)c3ccc(Cl)cc3)c(N(C)C)o2)cc(OC)c1OC | inconclusive: 39.8 µM [inhibitor, single point] | 
COCCNC(=O)NC(=O)CN1C(=O)NC(Cc2c[nH]c3ccccc23)C1=O (stereo not drawn) |  | inactive: -20%
COC(=O)c1ccccc1CSc1nsc(/C=C/N(C)C)c1C#N | active: 50.1 µM | 
Cc1ccc(C)c(OCC(=O)Nc2ccc(N3CCOCC3)cc2)c1 | inconclusive: 89.1 µM [inhibitor, single point] | 
CN1Cc2c(N3CCOCC3)nc3sc(C#N)c(N)c3c2CC1(C)C |  | inactive: -19%
COc1ccc(-c2cc(OC(=O)c3ccc(Cl)cc3)c3c(C)oc(C)c3c(=O)c2)cc1 | inconclusive: 63.1 µM [inhibitor, partial curve] | 
CC1=NN(c2ccccc2)C(=O)/C1=C\c1sccc1C | inconclusive: 14.1 µM [inhibitor, full curve] | 

Compound | Potency | activity change, negative = inhibition
NS(=O)(=O)c1ccc(CCNC(=O)CCNS(=O)(=O)c2ccccc2C(F)(F)F)cc1 |  | inactive: -1.42%
COc1ccc(C(=O)Oc2c(OC)cc(C(=S)N3CCOCC3)cc2OC)cc1 |  | inactive: -18.3%
COc1ccc(CN(C(=O)/C=C/c2ccco2)C2CCS(=O)(=O)C2)cc1 (stereo not drawn) | inconclusive: 50.1 µM [inhibitor, partial curve] | 
CCc1ccccc1NC(=O)CNC(=O)c1n[nH]c(=O)c2ccccc12 |  | inactive: -5.19%
CCc1cccc(N(C(=O)c2csnn2)C(C(=O)NC(C)(C)C)c2ccncc2)c1 (stereo not drawn) | active: 56.2 µM | 
O=C(CSc1nnc(CNc2ccc(Cl)cc2)o1)Nc1nc2c(s1)CCCC2 |  | inactive: -23.1%
S=c1[nH]nc(C2CCCCC2)n1/N=C/C(Cl)=C\c1ccccc1 | inconclusive: 63.1 µM [inhibitor, single point] | 
C/C(=N/Nc1ccnc2cc(Cl)ccc12)c1ccc(O)cc1 | inconclusive: 79.4 µM [inhibitor, partial curve] | 
CC(C)(C)NC(=O)C(c1cccs1)N(Cc1ccc(F)cc1)C(=O)c1csnn1 (stereo not drawn) | inconclusive: 50.1 µM [inhibitor, partial curve] | 
CCN1CCN(C(C)CCc2ccccc2)CC1 (stereo not drawn) |  | inactive: -21.8%
CN1Cc2c(N3CCOCC3)nc(SCc3ccccc3)c(C#N)c2CC1(C)C | inconclusive: 50.1 µM [inhibitor, partial curve] | 
CCOC(=O)N1CCC(N2C(=O)c3ccccc3C2Nc2cc(Cl)c(OC)cc2OC)CC1 (stereo not drawn) | inconclusive: 50.1 µM [inhibitor, partial curve] | 
CN(C)S(=O)(=O)c1cccc(NC(=O)c2cc(-c3cccs3)nn2-c2cccc(Cl)c2)c1 |  | inactive: -28.3%
COc1ccccc1CNC(=O)c1oc2ccc(S(=O)(=O)N3CCCCC3)cc2c1C |  | inactive: -16.5%
CCc1ccccc1NC(=O)c1ccc2c(O)c(S(=O)(=O)c3ccccc3)c(=O)[nH]c2c1 | active: 79.4 µM | 
CCCN(CCO)Cc1ccc(Br)cc1 | active: 20 µM | 
COc1cc(/C=N/Nc2cccc(C)c2)ccc1OC(=O)c1cccs1 | inconclusive: 39.8 µM [inhibitor, single point] | 
COc1cc(/C=C2/NC(=O)N(CC(=O)Nc3cccc(C)c3)C2=O)ccc1OCC(N)=O | active: 20 µM | 
COc1ccc(C2Nc3ccccc3C(=O)N2Cc2ccccc2)cc1COc1ccc(F)cc1 (stereo not drawn) |  | inactive: -10.9%
CCc1cccc2c1NC1(CCCC1)CC2C (stereo not drawn) | inconclusive: 3.16 µM [inhibitor, partial curve] | 
O=C(COC(=O)c1ccccc1)c1ccc(Br)cc1 |  | inactive: 13.8%
COc1ccc(C2=NOC(C)(c3sc(-c4ccc(Cl)cc4)nc3C)C2)cc1 (stereo not drawn) |  | inactive: 1.39%
N#Cc1c(Cc2cccc3ccccc23)nn(CCO)c1N |  | inactive: -25.4%
O=C(O)c1cc(-c2ccc(/C=N/Nc3ccc(Cl)cc3)o2)ccc1Cl | inconclusive: 79.4 µM [inhibitor, partial curve] | 
